Assay results published in patent publication US10064873B2, “Compounds and compositions for treating HIV with derivatives of Betulin” (GlaxoSmithKline LLC, priority 2011, dated 2018).

Tested on: HIV (infection of HOS cells by the J4HxB2 cell line)
Assay: microbe, parasite or virus in culture
Assay type: cell-based
Conditions: Human immunodeficiency virus 1, HOS
[1] = read-out: LHIV IC50 (nM) with 40% HuS, 40% human serum
[2] = no human serum, read-out: LHIV IC50

Row | Compound | IC50 [1] | IC50 [2] | IC50 (read-out: IC50 with 40% human serum, LHIV assay)
1 | CC(C)C1=C2[C@H]3CC[C@@H]4[C@@]5(C)CC[C@H](OC(=O)CC(C)(C)C(=O)O)C(C)(C)[C@@H]5CC[C@@]4(C)[C@]3(C)CC[C@@]2([C@@H](O)CN(CCN(C)C)Cc2ccc(Cl)cc2)CC1=O [Compound 51, 4-(((3aR,5aR,5bR,7aR,9S,11aR,11bR,13aS)-3a-((R)-2-((4-chlorobenzyl)(2-(dimethylamino)ethyl)amino)-1-hydroxyethyl)-1-isopropyl-5a,5b,8,8,11a-pentamethyl-2-oxo-3,3a,4,5,5a,5b,6,7,7a,8,9,10,11,11a,11b,12,13,13a-octadecahydro-2H-cyclopenta[a]chrysen-9-yl)oxy)-2,2-dimethyl-4-oxobutanoic acid] | 10.6 nM | 1.9 nM | –
2 | C=C(C)[C@@H]1CC[C@]2(C(=O)O)CC[C@]3(C)[C@H](CC[C@@H]4[C@@]5(C)CC[C@H](OC(=O)CC(C)(C)C(=O)O)C(C)(C)[C@@H]5CC[C@]43C)[C@@H]12 [Bevirimat] | 6600 nM | 42 nM | –
3 | CC(C)C1=C2[C@H]3CC[C@@H]4[C@@]5(C)CC[C@H](OC(=O)CC(C)(C)C(=O)O)C(C)(C)[C@@H]5CC[C@@]4(C)[C@]3(C)CC[C@@]2([C@@H](O)CN(CCN(C)C)Cc2ccc(Cl)cc2)CC1=O [Compound 51, 4-(((3aR,5aR,5bR,7aR,9S,11aR,11bR,13aS)-3a-((R)-2-((4-Chlorobenzyl)(2-(dimethylamino)ethyl)amino)-1-hydroxyethyl)-1-isopropyl-5a,5b,8,8,11a-pentamethyl-2-oxo-3,3a,4,5,5a,5b,6,7,7a,8,9,10,11,11a,11b,12,13,13a-octadecahydro-2H-cyclopenta[a]chrysen-9-yl)oxy)-2,2-dimethyl-4-oxobutanoic acid] | – | – | 10.6 nM

Like-named read-outs stand apart in the source and are kept apart here.
